This is one part of the list. These are noisy estimates, calculated here from bound and input reads.

The assay concerns the target T1, Pho4 (S. cerevisiae) (UniProt P07270).
T1 sequence: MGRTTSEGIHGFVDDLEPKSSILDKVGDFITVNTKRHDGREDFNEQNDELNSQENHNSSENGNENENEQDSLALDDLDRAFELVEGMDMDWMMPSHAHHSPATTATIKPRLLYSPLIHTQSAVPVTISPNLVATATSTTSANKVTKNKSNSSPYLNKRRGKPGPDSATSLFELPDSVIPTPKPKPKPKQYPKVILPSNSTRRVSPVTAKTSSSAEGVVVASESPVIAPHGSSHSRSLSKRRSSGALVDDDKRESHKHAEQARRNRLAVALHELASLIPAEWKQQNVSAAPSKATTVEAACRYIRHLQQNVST
As to the kind of experiment: relative binding free energy (BET-seq); higher = weaker binding. The note with it: reference: library average.
On to ATGTTCACGTGTGGCC, for which the “relative binding free energy” value stood at 0.23 kcal/mol.
In the case of TGGGACACGTGGTGTG it was -0.06 kcal/mol; in that of GGCATCACGTGTTGTA, 0.09 kcal/mol.
With GTTAGCACGTGTATGT, the “relative binding free energy” value was 0 kcal/mol.
In the case of GGGGTCACGTGATTGG, the “relative binding free energy” value was 0.32 kcal/mol.
Turning to ACGGGCACGTGCGGTT, the “relative binding free energy” value was -0.12 kcal/mol.
To AAAGGCACGTGGGGAT belongs -0.08 kcal/mol.
In the case of CTTTTCACGTGGGCGG it was 0.22 kcal/mol; in that of TTTCGCACGTGGTGGT, -0.16 kcal/mol.
In the case of GTGGGCACGTGCGTGT it was -0.11 kcal/mol; in that of ACGGGCACGTGTGGTA, -0.2 kcal/mol.
Regarding ATGGTCACGTGAGGAT, the “relative binding free energy” value is 0.36 kcal/mol.
To AGTGGCACGTGATTAA belongs 0.16 kcal/mol; to CATTTCACGTGATTAT, 0.24 kcal/mol.
To TTTGGCACGTGCAGTA belongs -0.11 kcal/mol; to TAATGCACGTGATGGG, 0 kcal/mol; to TGAGTCACGTGTCTAG, 0.06 kcal/mol.
In the case of TCGTCCACGTGTGTGG it was 0.04 kcal/mol; in that of AGGGACACGTGGTTGT, -0.06 kcal/mol.
As to GTAGACACGTGGAGGT, the “relative binding free energy” value was -0.01 kcal/mol.
As to TGAAGCACGTGTGTAG, the “relative binding free energy” value was -0.18 kcal/mol.
Turning to TTAGGCACGTGATGCA, the “relative binding free energy” value was 0.07 kcal/mol.
ATGTGCACGTGAGCCT: the “relative binding free energy” value turned out to be 0.23 kcal/mol.
To GAAGTCACGTGCGCGG belongs 0.09 kcal/mol.
On to TTTACCACGTGTTTAA, for which the “relative binding free energy” value came out at 0.11 kcal/mol.
To TACTTCACGTGTATGG belongs 0.24 kcal/mol.
To GGGATCACGTGTTGGG belongs 0.17 kcal/mol; to GTGTACACGTGTGCTT, 0.14 kcal/mol; to TGTACCACGTGGTTAT, -0.2 kcal/mol.
To ATGGTCACGTGGGAGA belongs 0.12 kcal/mol; to TAGGTCACGTGAGCAG, 0.28 kcal/mol; to TTGGACACGTGGTTTA, 0.04 kcal/mol.
As for GGGTACACGTGAGGCA, the “relative binding free energy” value stood at 0.3 kcal/mol.
To ATTGGCACGTGATTCT belongs 0.04 kcal/mol; to TTGTTCACGTGTCTGT, 0.23 kcal/mol.
To CTGGCCACGTGAGTAG belongs 0.2 kcal/mol; to TGATCCACGTGGGGCT, -0.03 kcal/mol.
To TGTTGCACGTGTTGGG belongs -0.01 kcal/mol.
For the sequence GGATCCACGTGTTTAG, the “relative binding free energy” value came to 0.25 kcal/mol.
Regarding TGGTGCACGTGTAAGG, the “relative binding free energy” value is -0.02 kcal/mol.
Consider CTTATCACGTGTTTGA, for which the “relative binding free energy” value amounted to 0.03 kcal/mol.
To GTTTTCACGTGGGAAA belongs 0.42 kcal/mol; to TTTACCACGTGGTTTA, -0.05 kcal/mol; to GACGGCACGTGTGTGG, -0.04 kcal/mol.
In the case of TCGGGCACGTGATGGC, the “relative binding free energy” value turned out to be 0.08 kcal/mol.
For the sequence CTTGGCACGTGAGCTT, the “relative binding free energy” value worked out at 0.11 kcal/mol.
AATGTCACGTGTGGGG: the “relative binding free energy” value came to 0.28 kcal/mol.
To GTGGACACGTGAAGGA belongs 0.37 kcal/mol; to GAGGCCACGTGTATGT, -0.04 kcal/mol.
Turning to AATGGCACGTGGGTTA, the “relative binding free energy” value is -0.2 kcal/mol.
In the case of ATGGACACGTGGTTAT it was 0.07 kcal/mol.
To TTCGTCACGTGTAAGT belongs 0.05 kcal/mol; to ATGGTCACGTGGTCTT, 0.04 kcal/mol; to TGTGACACGTGGTTAG, 0.04 kcal/mol.
To TTCGTCACGTGGCTGT belongs 0.15 kcal/mol; to TAATACACGTGAGGTG, 0.47 kcal/mol; to GCATTCACGTGTATTT, 0.16 kcal/mol.
In the case of CTTAACACGTGTGCGT, the “relative binding free energy” value came out at 0.09 kcal/mol.
In the case of CAGTGCACGTGGTGTT it was -0.08 kcal/mol; in that of TTGGTCACGTGAAGCG, 0.21 kcal/mol.
For the sequence GTGGGCACGTGGTGAG, the “relative binding free energy” value is -0.08 kcal/mol.
Take TGCCTCACGTGGTTGC: the “relative binding free energy” value was determined as 0.37 kcal/mol.
In the case of GAGGTCACGTGCGGCT it was 0.11 kcal/mol; in that of GCCGCCACGTGAGGGT, 0.38 kcal/mol; in that of GTTTACACGTGTGGTT, 0.23 kcal/mol.
In the case of CGGTGCACGTGCGTGA it was -0.04 kcal/mol; in that of ATTCGCACGTGGATTA, -0.03 kcal/mol; in that of GCTGGCACGTGTGGAG, 0.04 kcal/mol.
In the case of GATTACACGTGTCGGG it was 0.25 kcal/mol; in that of GTTGCCACGTGTGATT, 0.03 kcal/mol; in that of AACAACACGTGGGGAG, 0.16 kcal/mol.
For AATAACACGTGTTGGT, the “relative binding free energy” value is -0.07 kcal/mol.
To ATCTGCACGTGGTGCG belongs -0.14 kcal/mol.
To AGAGTCACGTGAGGGT belongs 0.25 kcal/mol; to GGTTACACGTGAAGTC, 0.42 kcal/mol; to AGGTGCACGTGTGAAT, 0.08 kcal/mol.
In the case of TGGGACACGTGGCGTA it was -0.16 kcal/mol.
As for CGATTCACGTGTTGAG, the “relative binding free energy” value stood at 0.24 kcal/mol.
In the case of GGTGGCACGTGAGGCT it was 0.13 kcal/mol; in that of TGTGACACGTGTTCGG, -0.09 kcal/mol.
Turning to TTAGGCACGTGGGAAG, the “relative binding free energy” value was -0.08 kcal/mol.
Regarding ACGATCACGTGTTATT, the “relative binding free energy” value stood at 0.29 kcal/mol.
To TGTGTCACGTGCTTGA belongs 0.01 kcal/mol; to AGTAGCACGTGAGAAG, 0.13 kcal/mol.
Take AGAGGCACGTGGGTGC: the “relative binding free energy” value is -0.29 kcal/mol.
In the case of GTAAGCACGTGGTCAG it was -0.11 kcal/mol; in that of GTAGGCACGTGGTAGC, -0.09 kcal/mol; in that of TGAGACACGTGGGAGA, 0.02 kcal/mol.
In the case of CGAGGCACGTGAGTAG it was 0.16 kcal/mol; in that of ATTGTCACGTGGAGAA, -0.08 kcal/mol; in that of GTGTACACGTGGCGGT, 0.06 kcal/mol.
TAGGGCACGTGCGATT: the “relative binding free energy” value was -0.04 kcal/mol.
In the case of TTTTACACGTGGATGC it was 0.26 kcal/mol.
Consider TGAGCCACGTGTGGGT, for which the “relative binding free energy” value was -0.14 kcal/mol.
In the case of TTGGTCACGTGTCGTG it was 0.08 kcal/mol; in that of GGGTCCACGTGTAAGT, 0.1 kcal/mol.
To TTTCTCACGTGTGTGA belongs 0.26 kcal/mol; to TGGTGCACGTGCCGGA, -0.11 kcal/mol.
Turning to GTAGACACGTGATTGG, the “relative binding free energy” value is 0.18 kcal/mol.
In the case of GGGGTCACGTGGTAAG it was 0.17 kcal/mol; in that of TCGGTCACGTGGCGGT, 0.07 kcal/mol; in that of GTCAGCACGTGCTTGT, 0 kcal/mol.
In the case of TAGGGCACGTGGTTTG it was -0.13 kcal/mol.
In the case of AGTATCACGTGATGTC it was 0.36 kcal/mol.
With AACGTCACGTGGTATG, the “relative binding free energy” value amounted to 0 kcal/mol.
To GTTGTCACGTGTTTTA belongs 0.25 kcal/mol; to GAGCTCACGTGTTTGG, 0.22 kcal/mol; to TTTATCACGTGGAGGA, 0.01 kcal/mol.
As to CAGTGCACGTGCTGGT, the “relative binding free energy” value was -0.08 kcal/mol.
In the case of TGGACCACGTGGTATT it was -0.06 kcal/mol.
To TGCAACACGTGGAGTT belongs 0.07 kcal/mol; to GTGGGCACGTGAGCGG, 0.14 kcal/mol.
In the case of GCTTTCACGTGAGTTT it was 0.42 kcal/mol; in that of GCAGGCACGTGCGTGG, -0.21 kcal/mol; in that of AGTCACACGTGGAGTT, 0.06 kcal/mol.

Source of the values: the BET-seq Pho4 binding data (Le et al. 2018).
